In PubChem BioAssay (NCATS) one finds AC50 and z-score data, which are given here for twelve compounds.

The nature of assay [1]: qHTS drug screen for cell cycle checkpoint inhibitors in PARPi-resistant BRCA-mutant ovarian cancer cell lines. (AID 1963452). The note with it: PEO1/OlaR viability, CellTiter-Glo luminescence, 96 h. An outline of the steps:
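PEO1, PEO4 and PEO1/OlaR ovarian cancer cells, 600 per well, exposed 96 h at 37C to a dilution series. Viability read by CellTiter-Glo luminescence, normalized to DMSO and empty wells; activity summarized as Z-AUC.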
Background: In qHTS, concentration-response curves come from the screen itself.

Assay [2] can be described thus: qHTS for identification of novel therapeutic agents for treatment of microphthalmiaassociated transcription factor (MiT) renal cell carcinoma (RCC) (AID 1963991).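 For z-score: curves scaled with 100% = DMSO viability and 0% = empty wells.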 The following applies: CellTiter-Glo, 48 h; for z-score: stronger effect = lower value. An outline of the steps:
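UOK109/UOK124/UOK145 (TFE3 fusions, three partners); 500 cells/well; MIPE v4.0, 1912 cpds, 11 conc.; 48 h, 37 C; CellTiter-Glo, 15 min RT; lum. Norm.: DMSO 100%, empty 0%.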

Setting [3] is: measured here: PEO1 parental viability.
Setting [4] is: TFE3-RCC UOK109 viability, measured here: UOK109 Z-AUC.
Setting [5] is: TFE3-RCC viability, measured here: UOK124 Z-AUC.
Where [6] appears, read: TFE3-RCC viability, measured here: UOK124 cell viability.
[7] abbreviates: TFE3-RCC viability, measured here: UOK145 Z-AUC.
Setting [8] is: TFE3-RCC viability, measured here: UOK145 cell viability.

Molecules are shown by their SMILES. The list shows a part of the results. Shown are side measurements of this screen, not its main read-out; they come without a call. For part of these data: Compounds called inactive in the main read-out are mostly missing here. The note in brackets gives the kind of curve behind each potency; many fits are weak.
Tags give direction and shape of the fitted curve.

For `Cc1ccc(C(=O)Nc2cccc(C(F)(F)F)c2)cc1-c1ccc2nc(NCCN3CCOCC3)ncc2c1`, the concentration at half-maximal activity (AC50) was 2.45 µM [falling, full curve] in assay [1] (setting [3]); 6.92 µM [falling, partial curve] in assay [1] (measured here: PEO4 viability); 7.43 µM [falling, partial curve] in assay [2] (setting [6]); 7.43 µM [falling, full curve] in assay [2] (setting [8]). Besides, the z-score in assay [2] (setting [4]) is 0.0796; in assay [2] (setting [5]) it was 0.284; in assay [2] (setting [7]) it was -0.643.

On to `Oc1cc(-c2nc(-c3ccccc3)[nH]c2-c2ccncc2)ccc1Cl`, for which the AC50 in assay [1] (setting [3]) was 17.4 µM [falling, partial curve]; in assay [1] (measured here: PEO4 viability), 7.76 µM [falling, partial curve]; in assay [2] (setting [6]), 16.6 µM [falling, partial curve]; in assay [2] (setting [8]), 16.6 µM [falling, partial curve]. Further, the z-score in assay [2] (setting [4]) was -0.961; in assay [2] (setting [5]) it was -0.294; in assay [2] (setting [7]), 0.394.

With `COc1cccc2nc(-c3cccs3)nc(NN3C(=O)C=C(C)C3=O)c12`, the AC50 was 0.616 µM [falling, full curve] in assay [1] (setting [3]); 0.549 µM [falling, full curve] in assay [1] (measured here: PEO4 viability); 2.96 µM [falling, full curve] in assay [2] (setting [6]); 2.64 µM [falling, full curve] in assay [2] (setting [8]). In addition, the z-score in assay [2] (setting [4]) was -0.27; in assay [2] (setting [5]), -1.07; in assay [2] (setting [7]) it was -1.42.

For the compound `C#Cc1cccc(Nc2ncnc3cc(OC)c(OCCCCCCC(=O)NO)cc23)c1`, the AC50 in assay [1] (setting [3]) is 1.1 µM [falling, full curve]; in assay [1] (measured here: PEO4 viability) it was 1.1 µM [falling, full curve]; in assay [2] (setting [6]), 0.0126 µM [falling, partial curve]; in assay [2] (setting [8]), 14.8 µM [falling, partial curve]. Besides, the values for the z-score in assay [2] (setting [4]), in assay [2] (setting [5]) and in assay [2] (setting [7]) were -1.73, -1.86 and -0.176, respectively.

`Cc1cc(C(=O)N2CCN(c3cccc(Cl)c3)CC2)n(-c2ccccc2)n1`: the half-maximal activity concentration (AC50) was 0.977 µM [falling, full curve] in assay [1] (setting [3]); 1.1 µM [falling, full curve] in assay [1] (measured here: PEO4 viability); 5.26 µM [falling, partial curve] in assay [2] (setting [6]); 0.59 µM [falling, full curve] in assay [2] (setting [8]). Also, the z-score in assay [2] (setting [4]) was -0.185; in assay [2] (setting [5]), -0.18; in assay [2] (setting [7]), 0.199.

For the compound `CNC(=O)c1c(F)cccc1Nc1nc(Nc2cc3c(cc2OC)CCN3C(=O)CN(C)C)nc2[nH]ccc12`, the AC50 is 17.4 µM [falling, single point] in assay [1] (setting [3]); 8.71 µM [falling, partial curve] in assay [1] (measured here: PEO4 viability); 20.9 µM [falling, partial curve] in assay [2] (setting [6]); 20.9 µM [falling, partial curve] in assay [2] (setting [8]). Moreover, the z-score in assay [2] (setting [4]) was 1; in assay [2] (setting [5]), -1.2; in assay [2] (setting [7]), 0.203.

As for `CN1CCN(c2ccc3nc(-c4c(N)c5c(F)cccc5[nH]c4=O)[nH]c3c2)CC1`, the AC50 in assay [1] (setting [3]) was 6.92 µM [falling, partial curve]; in assay [1] (measured here: PEO4 viability), 6.16 µM [falling, partial curve]; in assay [2] (setting [6]), 16.6 µM [falling, partial curve]; in assay [2] (setting [8]), 18.7 µM [falling, partial curve]. Also, the results for the z-score in assay [2] (setting [4]), in assay [2] (setting [5]) and in assay [2] (setting [7]) were -0.717, -0.714 and -0.267, respectively.

For the compound `OCCNC1CCCc2c1[nH]c1ccc(-c3ccccc3)cc21` (centres undefined), the AC50 in assay [1] (setting [3]) was 19.5 µM [falling, partial curve]; in assay [1] (measured here: PEO4 viability), 13.8 µM [falling, partial curve]; in assay [2] (setting [6]), 18.7 µM [falling, partial curve]; in assay [2] (setting [8]), 37.2 µM [falling, partial curve, poor fit]. Moreover, the figures for the z-score in assay [2] (setting [4]), in assay [2] (setting [5]) and in assay [2] (setting [7]) were 0.0329, -0.532 and 1.1, respectively.

In the case of `O=C(CCCCCCNC(=O)c1cnc(N(c2ccccc2)c2ccccc2)nc1)NO`, the concentration at half-maximal activity (AC50) is 17.4 µM [falling, partial curve] in assay [1] (setting [3]); 17.4 µM [falling, partial curve] in assay [1] (measured here: PEO4 viability); 23.5 µM [falling, partial curve] in assay [2] (setting [6]); 13.2 µM [falling, partial curve] in assay [2] (setting [8]). The values for the z-score in assay [2] (setting [4]), in assay [2] (setting [5]) and in assay [2] (setting [7]) were 0.374, -3 and 0.509, respectively.

As to `COc1cccc2c1CCCC2CCCN1CCN(C2CCCCC2)CC1` (centres undefined), the concentration at half-maximal activity (AC50) is 15.5 µM [falling, partial curve] in assay [1] (setting [3]); 19.5 µM [falling, partial curve, poor fit] in assay [1] (measured here: PEO4 viability); 29.6 µM [falling, single point] in assay [2] (setting [6]); 26.4 µM [falling, single point] in assay [2] (setting [8]). For the same compound, the z-score was 0.465 in assay [2] (setting [4]), -0.148 in assay [2] (setting [5]) and 0.512 in assay [2] (setting [7]).

For `Cc1cc(N2CCOCC2)cc2[nH]c(-c3c(NC[C@@H](O)c4cccc(Cl)c4)cc[nH]c3=O)nc12`, the half-maximal activity concentration (AC50) is 6.92 µM [falling, partial curve] in assay [1] (setting [3]); 6.16 µM [falling, partial curve] in assay [1] (measured here: PEO4 viability); 18.7 µM [falling, partial curve] in assay [2] (setting [6]); 14.8 µM [falling, partial curve] in assay [2] (setting [8]). Also, the z-score in assay [2] (setting [4]) was -1.39; in assay [2] (setting [5]) it was -1.01; in assay [2] (setting [7]) it was -0.487.

On to `Cc1ccc(NC(=O)c2ccc(CN3CCN(C)CC3)cc2)cc1Nc1nc(-c2cccnc2)cs1`, for which the AC50 was 15.5 µM [falling, single point] in assay [1] (setting [3]); 17.4 µM [falling, single point] in assay [1] (measured here: PEO4 viability); 18.7 µM [falling, partial curve] in assay [2] (setting [6]); 26.4 µM [falling, partial curve] in assay [2] (setting [8]). The z-score was found to be 0.0509 in assay [2] (setting [4]), 0.0188 in assay [2] (setting [5]) and 0.393 in assay [2] (setting [7]).

As a reminder, the AC50 is the concentration at which the activity in the assay is half-maximal.
